Results taken from PubChem BioAssay AID1458 (National Center for Advancing Translational Sciences (NCATS), 2008).
The whole screen tested about 210,000 compounds, of which about 5,900 (2.8%) were called active. Inconclusive results, whose numbers are uncertain, are shown with a selection of clear calls. Calls come from the whole dose curve; as a rule, active = well fitted activation curve with a large enough effect; inconclusive = small, poorly fitted or top-dose-only effect; inactive = no such curve, though single readings can be large or run the other way. Potencies of inconclusive entries are doubtful fits and often do not repeat.

Assay: qHTS Assay for Enhancers of SMN2 Splice Variant Expression; note: nearly all actives have a fitted effect of over 55% in size
Settings: HEK293 SMN2-luciferase splicing reporter, luminescence, 30-36 h; series mostly up to 46.1 µM
In short: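 qHTS luciferase splicing reporter: luminescence rises when SMN2 exon 7 is included in transfected HEK293 cells. Compound exposure lasted 30-36 h at 37C, with 4.5 mM final sodium butyrate as control, followed by a ONE-Glo read.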
Potency is the fitted concentration of half-maximal effect; tags give direction and shape of the fitted curve.

Row | Compound | Potency
1 | Cc1cccc(/C=N/NC(=O)c2ccc(Br)cc2)c1 | inconclusive: 17.8 µM [activator, single point]
2 | CS(=O)(=O)N1N=C(c2ccc(Br)cc2)CC1c1cccs1 (stereo not drawn) | inactive
3 | Nc1ccn(-c2ccccc2)c(=O)c1 | inconclusive: 6.31 µM [activator, partial curve, poor fit]
4 | O=c1c(-c2nc3ccccc3s2)cccn1Cc1ccccc1 | inconclusive: 17.8 µM [activator, partial curve, poor fit]
5 | COc1ccc(C2=NCN(c3ccc(C)cc3)C(=S)N2)cc1 | inconclusive: 11.2 µM [activator, partial curve]
6 | CNC(=O)CSc1nc2c([nH]c3ccccc32)c(=O)n1CCOC | inconclusive: 35.5 µM [activator, single point]
7 | Cc1nnc(N2CCN(c3ccc(Cl)cc3)CC2)c2c1nnn2Cc1ccc(F)cc1 | inactive
8 | COc1cccc(NC(=O)CCc2nc(-c3ccccc3F)no2)c1 | inconclusive: 11.2 µM [activator, partial curve]
9 | Cc1cccc(CNc2ccnc(-c3ccoc3)n2)c1 | inactive
10 | Cc1ccc(-c2noc(-c3ccccc3Br)n2)cc1 | active: 12.6 µM
11 | CN(C)c1ccc(N=Nc2ccccc2C(=O)OCC(=O)N(C)C2CCCCC2)cc1 | inconclusive: 31.6 µM [activator, single point]
12 | CCC(C)OC(=O)C1=C(C)NC2=C(C(=O)C(C(=O)OC)C(C)C2)C1c1ccc(N(C)C)cc1 (stereo not drawn) | inconclusive: 2 µM [activator, partial curve]
13 | CCCCc1ccc(-c2nc(N)n[nH]2)cc1 | active: 6.31 µM
14 | O=C(CCn1[nH]c(=O)c2ccccc2c1=O)N1CCOCC1 | inconclusive: 31.6 µM [activator, single point]
15 | O=C(Cc1csc2ccccc12)NCc1ccc(F)cc1 | inconclusive: 11.2 µM [activator, single point]
16 | CCOc1ccc(OCc2ccc(C(=O)Nc3cccc(C)n3)o2)cc1 | inconclusive: 20 µM [activator, single point]
17 | COc1cccc(C(=O)Nc2cccc(OC(C)=O)c2)c1 | active: 11.2 µM
18 | CCCn1c(/C=C/c2ccccc2)nc2ccccc21 | active: 11.2 µM
19 | COC(=O)CNC(=O)[C@@]1(C)C=C[C@@H](Cc2ccccc2)N1C(C)=O | active: 14.1 µM
20 | CCCCOC(=O)Nc1ccc(S(=O)(=O)Nn2cnnc2)cc1 | inactive
21 | Clc1ccc(-c2noc(CCCc3ccccc3)n2)cc1 | inactive
22 | Cc1ccc(Oc2ccc3c(c2)C(=O)N(c2ccc(S(=O)(=O)Nc4nccs4)cc2)C3=O)cc1 | inactive
23 | O=C(CC1CCCCC1)NCc1ccc(F)cc1 | inconclusive: 12.6 µM [activator, partial curve, poor fit]
24 | Nc1c(S(=O)(=O)O)cc(Nc2ccc(Nc3nc(Cl)nc(Nc4ccc(S(=O)(=O)O)cc4)n3)c(S(=O)(=O)O)c2)c2c1C(=O)c1ccccc1C2=O | inactive
25 | O=C(/C=N\O)NCCCNCc1ccccc1 | inconclusive: 5.62 µM [activator, single point]
26 | CN1/C(=C\C(=O)c2cccnc2)Sc2ccccc21 | active: 14.1 µM
27 | COc1ccc(/C(O)=C2/C(=O)C(=O)N(CCN(C)C)C2c2ccccn2)cc1OC (stereo not drawn) | inactive

Row | Compound | Potency
28 | CC(C)NC(=O)N1CCC2(CC1)CCN(S(C)(=O)=O)CC2 | inactive
29 | CCOc1ccccc1C(=O)N[C@H](C(=O)OCc1cc(=O)oc2cc(C)ccc12)C(C)C | inactive
30 | COc1ccc(Nc2nnc(SCC(=O)NC(=O)Nc3ccc4c(c3)OCCO4)s2)cc1 | inconclusive: 14.1 µM [activator, single point]
31 | Cc1cc(=O)n2[nH]c(-c3ccc(Cl)cc3)cc2n1 | active: 14.1 µM
32 | CCc1cc(C(=O)Nc2ccccc2)cs1 | inactive
33 | COc1cccc(-c2nc(CS(=O)(=O)c3ccccc3)no2)c1 | active: 11.2 µM
34 | COc1nc(NS(=O)(=O)c2ccc(C)cc2)nc(C)c1Cl | inconclusive: 8.91 µM [activator, full curve]
35 | Cc1ccc(OCCCn2c(-c3ccc(Cl)cc3)nc3ccccc3c2=O)c(C)c1 | inactive
36 | CC(C)c1ccc(NC(=O)C2CCN(S(=O)(=O)c3cccc4nonc34)CC2)cc1 | inactive
37 | CCOc1ccccc1NC(=O)c1ccc2c(c1)CCN2S(=O)(=O)c1ccc(C)cc1 | inactive
38 | CCCCn1c(NCCC)nc2c1c(=O)[nH]c(=O)n2C | inconclusive: 0.794 µM [activator, full curve]
39 | COc1c(C)cc(Br)cc1C(=O)Nc1ccc(-c2nc3ncccc3o2)cc1 | inactive
40 | CCOC(=O)CNC(=O)CSc1nc(-c2cccc(C)c2)ns1 | inactive
41 | Cc1cc(NC(=O)c2cc(-c3ccc(Cl)cc3)on2)n(-c2ccccc2)n1 | inactive
42 | O=C(CCCN1C(=O)/C(=C/c2cccs2)SC1=S)NNC(=O)c1ccccc1O | inactive
43 | Cc1ccc(/C=N/n2c(-c3ccncc3)n[nH]c2=S)cc1 | inactive
44 | CCOC(=O)c1[nH]c2ccccc2c1NC(=O)c1ccccc1F | inactive
45 | COc1ccc(/C(=N\Nc2ccccc2C(=O)O)c2ccccc2)cc1 | inactive
46 | Cc1ncsc1C(=O)Nc1nc2c(s1)CC(C)CC2 (stereo not drawn) | active: 12.6 µM
47 | COc1ccccc1N1CCN(/N=C/c2ccc(O)c(O)c2)CC1 | inconclusive: 22.4 µM [activator, single point]
48 | CC1CCCCC1NC(=S)Nc1ccc(SC(F)F)cc1 (stereo not drawn) | inconclusive: 6.31 µM [activator, full curve]
49 | CCC(CC)c1nn2c(=O)cc(COc3ccc(NC(=O)c4ccccc4C)cc3)nc2s1 | inactive
50 | COc1ccc(-c2nnc(N(C)C(=O)C3CCCO3)s2)cc1 (stereo not drawn) | active: 11.2 µM
51 | O=C(NC(=S)Nc1ccc2c(c1)OCCO2)c1ccccc1 | active: 7.08 µM
52 | CCOC(=O)c1c(C)[nH]c(C(=O)N/N=C\c2ccccc2Cl)c1C | inconclusive: 3.98 µM [activator, full curve, poor fit]
53 | C=CCn1c(SCC(=O)Nc2c(C)n(C)n(-c3ccccc3)c2=O)nc2scc(-c3ccccc3)c2c1=O | inactive
